Here are results for 61 compounds from patent US20050004163A1, “3-(diarylmethylene)-8-azabicyclo[3.2.1]octane derivatives” (priority 2000, published 2005).

The first experiment concerns the target T1, δ-opioid receptor (Rattus norvegicus, UniProt P33533).
T1 construct: the forebrains are homogenized in Tris buffer in a Teflon®-glass homogenizer; from tissue; host or cells: forebrain of male Wistar rats (particulate membrane preparation)
T1 sequence (P33533 whole entry): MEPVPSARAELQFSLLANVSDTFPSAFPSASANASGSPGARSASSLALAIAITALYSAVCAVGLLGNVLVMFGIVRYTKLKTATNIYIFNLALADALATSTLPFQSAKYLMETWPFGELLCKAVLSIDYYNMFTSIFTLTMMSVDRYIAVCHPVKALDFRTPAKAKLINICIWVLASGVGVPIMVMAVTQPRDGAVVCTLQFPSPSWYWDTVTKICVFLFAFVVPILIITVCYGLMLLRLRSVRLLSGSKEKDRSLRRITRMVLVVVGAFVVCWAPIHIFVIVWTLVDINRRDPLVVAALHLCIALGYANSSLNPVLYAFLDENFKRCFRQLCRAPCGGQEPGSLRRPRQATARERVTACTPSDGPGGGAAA
The note with it: DOR binding Ki, rat brain δ opioid receptor binding; 10 nM solutions of the compounds.
One may read the Ki as a dissociation constant, usually derived from enzyme kinetics or from competition with a known ligand. In the case of `CCNC(=O)c1ccc(C=C2CC3CCC(C2)N3Cc2cccnc2)cc1` [Cpd 57], the affinity corresponds to a Ki of 10000 nM. Compound `CCNC(=O)c1ccc(C=C2CC3CCC(C2)N3CC#Cc2ccccc2)cc1` [Cpd 59] showed a Ki of 10000 nM. `CCNC(=O)c1ccc(C(=C2CC3CCC(C2)N3Cc2cccs2)c2cnc3ccccc3c2)cc1` [Cpd 64] yielded a Ki of 1.43 nM. In the case of `CCNC(=O)c1ccc(C(=C2CC3CCC(C2)N3Cc2ccc3c(c2)OCO3)c2cnc3ccccc3c2)cc1` [Cpd 65], the Ki turned out to be 2.56 nM. Same read-out and setting: then `CCNC(=O)c1ccc(C(=C2CC3CCC(C2)N3Cc2ccccn2)c2cnc3ccccc3c2)cc1` [Cpd 66], with 1.97 nM; and `CCNC(=O)c1ccc(C(=C2CC3CCC(C2)N3CC=C(C)C)c2cccc3cccnc23)cc1` [Cpd 67], with 77.2 nM; and `CCNC(=O)c1ccc(C(=C2CC3CCC(C2)N3Cc2cccs2)c2cccc3cccnc23)cc1` [Cpd 68], with 34.4 nM. On the same count and under the same terms, the figure for `CCNC(=O)c1ccc(C(=C2CC3CCC(C2)N3Cc2ccc3c(c2)OCO3)c2cccc3cccnc23)cc1` [Cpd 69] is 77.5 nM; for `CCNC(=O)c1ccc(C(=C2CC3CCC(C2)N3Cc2ccccn2)c2cccc3cccnc23)cc1` [Cpd 70] it is 22.3 nM. In turn, `CCNC(=O)c1ccc(C(=C2CC3CCC(C2)N3Cc2ccc3ccccc3n2)c2cccnc2)cc1` [Cpd 71] came in with a Ki of 5.14 nM. `CCNC(=O)c1ccc(C(=C2CC3CCC(C2)N3Cc2ccc3ccccc3n2)c2cccc(NC(C)=O)c2)cc1` [Cpd 72] yielded a Ki of 6.83 nM. Turning to `CCNC(=O)c1ccc(C(=C2CC3CCC(C2)N3Cc2ccc3ccccc3n2)c2cccc(C(C)=O)c2)cc1` [Cpd 73], affinity was put at a Ki of 6.54 nM. The same measure, in the same setting: the figure for `CCNC(=O)c1ccc(C(=C2CC3CCC(C2)N3Cc2csc([N+](=O)[O-])c2)c2cccnc2)cc1` [Cpd 74] is 10.6 nM; for `CCNC(=O)c1ccc(C(=C2CC3CCC(C2)N3Cc2csc([N+](=O)[O-])c2)c2cccc(C(C)=O)c2)cc1` [Cpd 76] it is 35.3 nM; for `CCNC(=O)c1ccc(C(=C2CC3CCC(C2)N3Cc2ccco2)c2cccc(C(=O)O)c2)cc1` [Cpd 80, 3-[(4-Ethylcarbamoyl-phenyl)-(8-furan-2-ylmethyl-8-aza-bicyclo[3.2.1]oct-3-ylidene)-methyl]-benzoic acid] it is 4.06 nM. In turn, `CCNC(=O)c1ccc(C(=C2CC3CCC(C2)N3Cc2ccoc2)c2cccc(C(=O)O)c2)cc1` [Cpd 81] had a Ki of 3.5 nM. `CCNC(=O)c1ccc(C(=C2CC3CCC(C2)N3Cc2ccccn2)c2cccc(C(=O)O)c2)cc1` [Cpd 82] had a Ki of 4.36 nM. Compound `CCNC(=O)c1ccc(C(=C2CC3CCC(C2)N3CCc2ccccc2)c2cccc(C(=O)O)c2)cc1` [Cpd 83] yielded a Ki of 625 nM.

The compound `CCNC(=O)c1ccc(C(=C2CC3CCC(C2)N3Cc2ccc(NC(C)=O)cc2)c2cccc(C(=O)O)c2)cc1` [Cpd 84] returned a Ki of 325 nM. As for `CCNC(=O)c1ccc(C(=C2CC3CCC(C2)N3Cc2ccc3ccccc3n2)c2cccc(C(=O)O)c2)cc1` [Cpd 85], the Ki is 2.47 nM. Consider `CCNC(=O)c1ccc(C(=C2CC3CCC(C2)N3CC(=O)c2cc(C(=O)c3ccc(Cl)cc3)cn2C)c2ccccc2)cc1` [Cpd 88, 4-[(8{2-[4-(4-Chloro-benzoyl)-1-methyl-1H-pyrrol-2-yl]-2-oxo-ethyl}-8-azabicyclo[3.2.1]oct-3-ylidene)-phenyl-methyl]-N-ethyl-benzamide], for which affinity was put at a Ki of 36.4 nM.

Regarding `CCN(CC)C(=O)c1ccc(C(Br)=C2CC3CCC(C2)N3CCc2ccccc2)cc1` [Cpd 89, 4-[Bromo-(8-phenethyl-8-azabicyclo[3.2.1]oct-3-ylidene)-methyl]-N,N-diethylbenzamide], affinity was put at a Ki of 311 nM.

`CCNC(=O)c1ccc(C(=C2CC3CCC(C2)N3Cc2nnn[nH]2)c2ccccc2)cc1` [Cpd 90, N-Ethyl-4-{phenyl-[8-(1H-tetrazol-5-ylmethyl)-8-aza-bicyclo[3.2.1]oct-3-ylidene]-methyl}-benzamide] returned a Ki of 102 nM. In the case of `CCNC(=O)c1ccc(C(=C2CC3CCC(C2)N3CCN2CCN(C(=O)OC)CC2)c2ccccc2)cc1` [Cpd 91, 4-(2-{3-[(4-Ethylcarbamoylphenyl)-phenylmethylene]-8-azabicyclo[3.2.1]oct-8-yl}-ethyl)piperazine-1-carboxylic acid methyl ester], the affinity, expressed as Ki, was 212 nM.

As for `CCNC(=O)c1ccc(C(=C2CC3CCC(C2)N3Cc2cccc(C(=O)O)c2)c2ccccc2)cc1` [Cpd 93], the Ki was 480 nM. Still for that read-out and setting: the figure for `CCNC(=O)c1ccc(C(=C2CC3CCC(C2)N3Cc2ccc(C(=O)O)cc2)c2ccccc2)cc1` [Cpd 94] is 480 nM; for `CCNC(=O)c1ccc(C(=C2CC3CCC(C2)N3Cc2ccoc2)c2ccc(C(=O)O)cc2)cc1` [Cpd 97] it is 5.33 nM.

As to `CCNC(=O)c1ccc(C(=C2CC3CCC(C2)N3Cc2ccccn2)c2ccc(C(=O)O)cc2)cc1` [Cpd 98], the Ki was 6 nM. Regarding `CCNC(=O)c1ccc(C(=C2CC3CCC(C2)N3CCc2ccccc2)c2ccc(C(=O)O)cc2)cc1` [Cpd 99], the Ki is 4.82 nM. As for `CCNC(=O)c1ccc(C(=C2CC3CCC(C2)N3Cc2ccc3ccccc3n2)c2ccc(C(=O)O)cc2)cc1` [Cpd 100], the affinity, expressed as Ki, was 3.65 nM. `CCNC(=O)c1ccc(C(=C2CC3CCC(C2)N3Cc2ccc3ccccc3n2)c2cncnc2)cc1` [Cpd 101] had a Ki of 13.6 nM. Still for that read-out and setting: then `CCNC(=O)c1ccc(C(=C2CC3CCC(C2)N3Cc2nccs2)c2cccc(C(=O)O)c2)cc1` [Cpd 102], with 5.65 nM. `CNC(=O)c1ccc(C=C2CC3CCC(C2)N3)cc1` [Cpd 103, 4-(8-Aza-bicyclo[3.2.1]oct-3-ylidenemethyl)-N-methyl-benzamide] returned a Ki of 5850 nM. The same measure, in the same setting: the figure for `CNC(=O)c1ccc(C=C2CC3CCC(C2)N3CC2CC2)cc1` [Cpd 105] is 4520 nM; for `CCNC(=O)c1ccc(C=C2CC3CCC(C2)N3CCC(C#N)(c2ccccc2)c2ccccc2)cc1` [Cpd 106, 4-[8-(3-Cyano-3,3-diphenylpropyl)-8-aza-bicyclo[3.2.1]oct-3-ylidenemethyl]-N-ethyl-benzamide] it is 6560 nM. Regarding `CCNC(=O)c1ccc(C=C2CC3CCC(C2)N3CCC(C(=O)N(C)C)(c2ccccc2)c2ccccc2)cc1` [Cpd 107, 4-[8-(3-Dimethylcarbamoyl-3,3-diphenyl-propyl)-8-aza-bicyclo[3.2.1]oct-3-ylidenemethyl]-N-ethyl-benzamide], affinity was put at a Ki of 1570 nM.

As for `CCNC(=O)c1ccc(C(=C2CC3CCC(C2)N3Cc2ccco2)c2cc(N)cc(C(=O)O)c2)cc1` [Cpd 108], the affinity, expressed as Ki, was 105 nM. In turn, `CCNC(=O)c1ccc(C(=C2CC3CCC(C2)N3Cc2ccoc2)c2cc(N)cc(C(=O)O)c2)cc1` [Cpd 110] showed a Ki of 56.3 nM. Turning to `CCNC(=O)c1ccc(C(=C2CC3CCC(C2)N3Cc2ccccn2)c2cc(N)cc(C(=O)O)c2)cc1` [Cpd 112], the Ki is 1440 nM. Turning to `CCNC(=O)c1ccc(/C(=C2\C[C@H]3CC[C@@H](C2)N3Cc2ccccn2)c2ccc(C(=O)N(C)C)cc2)cc1` [Cpd 113, N-Ethyl-4-[N′,N′-dimethylbenzamide-(8-pyridin-2-ylmethyl-8-aza-bicyclo[3.2.1]oct-3-ylidene)-methyl]-benzamide], the inhibitory constant (Ki) is 1.33 nM.

Consider `CCNC(=O)c1ccc(C(=C2CC3CCC(C2)N3CC=C(C)C)c2cc(N)cc(C(=O)O)c2)cc1` [Cpd 114], for which the Ki amounted to 56.4 nM. The same measure, in the same setting: the figure for `CCNC(=O)c1ccc(C(=C2CC3CCC(C2)N3CCc2ccccc2)c2cc(N)cc(C(=O)O)c2)cc1` [Cpd 116] is 50.6 nM; for `CCNC(=O)c1ccc(C(=C2CC3CCC(C2)N3Cc2nccs2)c2cc(N)cc(C(=O)O)c2)cc1` [Cpd 118] it is 57.4 nM. Same read-out and setting: then `CCNC(=O)c1ccc(C(=C2CC3CCC(C2)N3Cc2cccs2)c2cc(N)cc(C(=O)O)c2)cc1` [Cpd 120], with 2.2 nM; and `CCNC(=O)c1ccc(C(=C2CC3CCC(C2)N3Cc2ccco2)c2ccc(CC(N)C(=O)O)cc2)cc1` (stereo not shown) [Cpd 124], with 9.29 nM. `CCNC(=O)c1ccc(C(=C2CC3CCC(C2)N3Cc2ccco2)c2ccc(CCC(=O)O)cc2)cc1` [Cpd 125] displayed a Ki of 1.44 nM.

Regarding `CCNC(=O)c1ccc(C(=C2CC3CCC(C2)N3Cc2ccoc2)c2ccc(CCC(=O)O)cc2)cc1` [Cpd 127], the inhibition constant (Ki) was 0.78 nM. The same measure, in the same setting: then `CCNC(=O)c1ccc(C(=C2CC3CCC(C2)N3Cc2ccsc2)c2ccc([N+](=O)[O-])cc2)cc1` [Cpd 128], with 0.28 nM; and `CCNC(=O)c1ccc(C(=C2CC3CCC(C2)N3Cc2ccsc2)c2ccc(CCC(=O)O)cc2)cc1` [Cpd 129], with 0.34 nM; and `CCNC(=O)c1ccc(C(=C2CC3CCC(C2)N3Cc2nccs2)c2ccc([N+](=O)[O-])cc2)cc1` [Cpd 130], with 11.3 nM.

Still in this experiment, the particulars now being: rat brain δ opioid receptor binding; 10 nM solutions of the compounds; read-out: DOR binding Ki.
In the case of `CCNC(=O)c1ccc(C=C2CC3CCC(C2)N3Cc2ccncc2)cc1` [Cpd 58], the inhibition constant (Ki) amounted to 10000 nM. With `CCNC(=O)c1ccc(C=C2CC3CCC(C2)N3Cc2cccs2)cc1` [Cpd 61], the Ki is 81.5 nM.

For the compound `CCNC(=O)c1ccc(C=C2CC3CCC(C2)N3CCc2ccccc2)cc1` [Cpd 62], the Ki was 148 nM.

As for `CCNC(=O)c1ccc(C=C2CC3CCC(C2)N3Cc2ccc(Cl)s2)cc1` [Cpd 77], the Ki is 2050 nM. With `CCNC(=O)c1ccc(C=C2CC3CCC(C2)N3Cc2sc3ccccc3c2C)cc1` [Cpd 78], the inhibitory constant (Ki) worked out at 5600 nM. With `CCNC(=O)c1ccc(C=C2CC3CCC(C2)N3CCc2ccccc2O)cc1` [Cpd 86], the Ki was 504 nM. Regarding `CCNC(=O)c1ccc(C(=C2CC3CCC(C2)N3Cc2ccc(C(=O)O)o2)c2cccc(C(=O)O)c2)cc1` [Cpd 87], the Ki is 254 nM. In the case of `CCNC(=O)c1ccc(C(=C2CC3CCC(C2)N3Cc2ccc(C(=O)O)o2)c2ccccc2)cc1` [Cpd 95], the Ki was found to be 144 nM. Consider `CCNC(=O)c1ccc(C(=C2CC3CCC(C2)N3Cc2ccco2)c2ccc(C(=O)O)cc2)cc1` [Cpd 96], for which the Ki turned out to be 6.62 nM.

For the compound `CCNC(=O)c1ccc(C(=C2CC3CCC(C2)N3Cc2ccco2)c2ccc([N+](=O)[O-])cc2)cc1` [Cpd 123], the Ki amounted to 0.64 nM. Take `CCNC(=O)c1ccc(C(=C2CC3CCC(C2)N3Cc2ccoc2)c2ccc([N+](=O)[O-])cc2)cc1` [Cpd 126]: the Ki was 0.23 nM.
